Measurements from patent US20260027220A1, “EPHA2 BCL-XL INHIBITOR ANTIBODY-DRUG CONJUGATES AND METHODS OF USE THEREOF” (Novartis AG, priority 2022, published 2026).

Key:
Settings in all cases: SPR Biacore 8k, anti-Fab capture, 37° C., 1:1 binding model
cyno EphA2 ectodomain = biological target: T1, cyno EphA2 ectodomain (Macaca fascicularis, UniProt Q1KL86); assay: Biacore KD determination, cyno EphA2
T1 construct: The soluble human, mouse and cyno EphA2 ectodomain flowed over both flow cells
Experimental: (§1) Kinetic rate constants were determined via SPR using the Biacore 8k instrument (Cytiva, formerly GE Healthcare Lifesciences) as described below.
(§2) A human Fab capture method was utilized in order to determine kinetics for the antibodies. The anti-Fab antibody used was provided in the Human Fab capture kit (Cytiva, cat #28958325) and was immobilized on all 8 channels of CM5 sensor chip according to the manufacturer's instructions. Each channel has two flow cells. The reference flow cell contained only immobilized anti-Fab, whereas the reaction flow cell captured anti-EphA2 IgG through anti-Fab. HBS-EP+ Buffer, pH 7.6 was used as the running buffer. The soluble human, mouse and cyno EphA2 ectodomain flowed over both flow cells on 8 channels. The EphA2 ectodomain concentration started at 50 nM and was serially diluted at one part to one part (1:1) in the running buffer for six concentrations. The analysis chamber was kept at 37° C. Regeneration was performed at the end of each sample washing with the solution of 10 mM Glycine-HCl, pH 2.1 provided in the kit.
(§3) The data were analysed using the Biacore Insight Evaluation Software. Double reference subtraction was completed to generate the final data. The raw data was fitted to a 1:1 binding model, with parameter(s) Rmax set to local.

human EphA2 ectodomain = biological target: T2, human EphA2 ectodomain (Homo sapiens, UniProt P29317); assay: Biacore KD determination, human EphA2
T2 construct: The soluble human, mouse and cyno EphA2 ectodomain flowed over both flow cells
Experimental: as §1
as §2, with “The anti-Fab antibody used was provided in the Human Fab capture kit (Cytiva, cat #28958325) and was immobilized on all 8 channels of CM5 sensor chip according to the manufacturer's instructions.” left out
as §3

mouse EphA2 ectodomain = biological target: T3, mouse EphA2 ectodomain (Mus musculus, UniProt Q03145); assay: Biacore KD determination, mouse EphA2
T3 construct: The soluble human, mouse and cyno EphA2 ectodomain flowed over both flow cells
Experimental: as §1
as §2, with “The anti-Fab antibody used was provided in the Human Fab capture kit (Cytiva, cat #28958325) and was immobilized on all 8 channels of CM5 sensor chip according to the manufacturer's instructions.” left out
as §3

T3 sequence (Q03145 26-538 limits assumed): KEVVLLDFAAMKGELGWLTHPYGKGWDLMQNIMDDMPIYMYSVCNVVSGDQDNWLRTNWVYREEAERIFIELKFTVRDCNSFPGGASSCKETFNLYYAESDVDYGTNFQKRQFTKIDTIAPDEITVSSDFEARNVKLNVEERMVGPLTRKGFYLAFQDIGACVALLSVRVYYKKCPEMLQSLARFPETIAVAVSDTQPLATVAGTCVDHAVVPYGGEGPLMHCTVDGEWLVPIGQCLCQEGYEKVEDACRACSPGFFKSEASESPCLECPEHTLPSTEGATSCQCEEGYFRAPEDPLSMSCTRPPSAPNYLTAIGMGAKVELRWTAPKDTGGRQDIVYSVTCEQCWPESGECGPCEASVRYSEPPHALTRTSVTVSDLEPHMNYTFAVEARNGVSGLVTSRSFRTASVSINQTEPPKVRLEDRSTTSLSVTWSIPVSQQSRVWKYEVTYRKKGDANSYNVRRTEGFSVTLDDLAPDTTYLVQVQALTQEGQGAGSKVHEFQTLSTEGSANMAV
T2 sequence (P29317 24-537 limits assumed): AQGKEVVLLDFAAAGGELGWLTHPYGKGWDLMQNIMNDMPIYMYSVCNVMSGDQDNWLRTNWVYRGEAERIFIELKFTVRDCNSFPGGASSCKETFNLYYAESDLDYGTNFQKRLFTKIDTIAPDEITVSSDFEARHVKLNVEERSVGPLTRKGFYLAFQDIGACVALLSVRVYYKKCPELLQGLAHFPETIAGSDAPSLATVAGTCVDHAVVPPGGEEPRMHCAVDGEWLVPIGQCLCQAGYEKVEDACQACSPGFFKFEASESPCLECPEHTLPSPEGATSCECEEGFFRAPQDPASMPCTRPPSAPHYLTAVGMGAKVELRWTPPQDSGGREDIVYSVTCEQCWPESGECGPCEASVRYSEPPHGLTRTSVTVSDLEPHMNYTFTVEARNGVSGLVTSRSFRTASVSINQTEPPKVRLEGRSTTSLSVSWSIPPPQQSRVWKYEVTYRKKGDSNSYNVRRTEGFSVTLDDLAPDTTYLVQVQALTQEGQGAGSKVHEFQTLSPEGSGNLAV
T1 sequence (Q1KL86 25-537 limits assumed): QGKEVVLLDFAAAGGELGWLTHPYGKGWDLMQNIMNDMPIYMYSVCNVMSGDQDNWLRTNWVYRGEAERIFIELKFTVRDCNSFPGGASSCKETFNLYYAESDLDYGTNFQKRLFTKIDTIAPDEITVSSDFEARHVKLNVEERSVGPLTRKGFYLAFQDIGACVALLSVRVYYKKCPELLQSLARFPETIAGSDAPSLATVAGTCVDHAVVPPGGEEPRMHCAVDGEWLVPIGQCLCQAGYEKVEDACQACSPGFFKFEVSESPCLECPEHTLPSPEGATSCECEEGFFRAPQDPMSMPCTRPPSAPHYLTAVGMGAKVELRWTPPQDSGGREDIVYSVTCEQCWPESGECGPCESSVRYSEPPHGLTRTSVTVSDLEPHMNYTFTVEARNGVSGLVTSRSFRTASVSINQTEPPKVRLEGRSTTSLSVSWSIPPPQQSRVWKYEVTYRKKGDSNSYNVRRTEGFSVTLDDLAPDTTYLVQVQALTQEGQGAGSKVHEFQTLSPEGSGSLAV

Molecule	ka (cyno EphA2 ectodomain)	kd (cyno EphA2 ectodomain)	ka (human EphA2 ectodomain)	kd (human EphA2 ectodomain)	ka (mouse EphA2 ectodomain)	kd (mouse EphA2 ectodomain)	KD (M) (cyno EphA2 ectodomain)	KD (M) (human EphA2 ectodomain)	KD (M) (mouse EphA2 ectodomain)
G77S (antibody) heavy: EVQLLESGGGLVQPGGSLRLSCAASGFTFSHYMMAWVRQAPGKGLEWVSRIGPSGGPTHYADSVKGRFTISRDNSKNTLYLQMNSLRAEDTAVYYCAGYDSGYDYVAVAGPAEYFQHWGQGTLVTVSSASTKGPSVFPLAPSSKSTSGGTAALGCLVKDYFPCPVTVSWNSGALTSGVHTFPAVLQSSGLYSLSSVVTVPSSSLGTQTYICNVNHKPSNTKVDKRV[not shown - human IgG1 Fc with S375C (EU numbers)] light: DIQMTQSPSSLSASVGDRVTITCRASQSISTWLAWYQQKPGKAPKLLIYKASNLHTGVPSRFSGSGSGTEFSLTISSLQPDDFATYYCQQYNSYSRTFGQGTKVEIKRTVAAPSVFIFPPSDEQLKSGTASVVCLLNNFYPREAKVQWKVDNALQSGNSQESVTEQDSKDSTYSLSSTLTLSKADYEKHKVYACEVTHQGLSSPVTKSFNRGEC	661000 M⁻¹ s⁻¹	0.147 s⁻¹	260000 M⁻¹ s⁻¹	0.0483 s⁻¹	163000 M⁻¹ s⁻¹	0.0603 s⁻¹	–	–	–
S93Q (antibody) heavy: EVQLLESGGGLVQPGGSLRLSCAASGFTFSHYMMAWVRQAPGKGLEWVSRIGPSGGPTHYADSVKGRFTISRDNSKNTLYLQMNSLRAEDTAVYYCAGYDSGYDYVAVAGPAEYFQHWGQGTLVTVSSASTKGPSVFPLAPSSKSTSGGTAALGCLVKDYFPCPVTVSWNSGALTSGVHTFPAVLQSSGLYSLSSVVTVPSSSLGTQTYICNVNHKPSNTKVDKRV[not shown - human IgG1 Fc with S375C (EU numbers)] light: DIQMTQSPSSLSASVGDRVTITCRASQSISTWLAWYQQKPGKAPKLLIYKASNLHTGVPSRFSGSGSGTEFSLTISGLQPDDFATYYCQQYNQYSRTFGQGTKVEIKRTVAAPSVFIFPPSDEQLKSGTASVVCLLNNFYPREAKVQWKVDNALQSGNSQESVTEQDSKDSTYSLSSTLTLSKADYEKHKVYACEVTHQGLSSPVTKSFNRGEC	1.24e+06 M⁻¹ s⁻¹	0.338 s⁻¹	268000 M⁻¹ s⁻¹	0.0635 s⁻¹	165000 M⁻¹ s⁻¹	0.0552 s⁻¹	–	–	–
N92A (antibody) heavy: EVQLLESGGGLVQPGGSLRLSCAASGFTFSHYMMAWVRQAPGKGLEWVSRIGPSGGPTHYADSVKGRFTISRDNSKNTLYLQMNSLRAEDTAVYYCAGYDSGYDYVAVAGPAEYFQHWGQGTLVTVSSASTKGPSVFPLAPSSKSTSGGTAALGCLVKDYFPCPVTVSWNSGALTSGVHTFPAVLQSSGLYSLSSVVTVPSSSLGTQTYICNVNHKPSNTKVDKRV[not shown - human IgG1 Fc with S375C (EU numbers)] light: DIQMTQSPSSLSASVGDRVTITCRASQSISTWLAWYQQKPGKAPKLLIYKASNLHTGVPSRFSGSGSGTEFSLTISGLQPDDFATYYCQQYASYSRTFGQGTKVEIKRTVAAPSVFIFPPSDEQLKSGTASVVCLLNNFYPREAKVQWKVDNALQSGNSQESVTEQDSKDSTYSLSSTLTLSKADYEKHKVYACEVTHQGLSSPVTKSFNRGEC	–	–	–	–	–	–	no binding	no binding	no binding
S10T (antibody) heavy: EVQLLESGGGLVQPGGSLRLSCAASGFTFSHYMMAWVRQAPGKGLEWVSRIGPSGGPTHYADSVKGRFTISRDNSKNTLYLQMNSLRAEDTAVYYCAGYDSGYDYVAVAGPAEYFQHWGQGTLVTVSSASTKGPSVFPLAPSSKSTSGGTAALGCLVKDYFPCPVTVSWNSGALTSGVHTFPAVLQSSGLYSLSSVVTVPSSSLGTQTYICNVNHKPSNTKVDKRV[not shown - human IgG1 Fc with S375C (EU numbers)] light: DIQMTQSPSTLSASVGDRVTITCRASQSISTWLAWYQQKPGKAPKLLIYKASNLHTGVPSRFSGSGSGTEFSLTISGLQPDDFATYYCQQYNSYSRTFGQGTKVEIKRTVAAPSVFIFPPSDEQLKSGTASVVCLLNNFYPREAKVQWKVDNALQSGNSQESVTEQDSKDSTYSLSSTLTLSKADYEKHKVYACEVTHQGLSSPVTKSFNRGEC	531000 M⁻¹ s⁻¹	0.104 s⁻¹	–	–	–	–	–	–	–
S93V (antibody) heavy: EVQLLESGGGLVQPGGSLRLSCAASGFTFSHYMMAWVRQAPGKGLEWVSRIGPSGGPTHYADSVKGRFTISRDNSKNTLYLQMNSLRAEDTAVYYCAGYDSGYDYVAVAGPAEYFQHWGQGTLVTVSSASTKGPSVFPLAPSSKSTSGGTAALGCLVKDYFPCPVTVSWNSGALTSGVHTFPAVLQSSGLYSLSSVVTVPSSSLGTQTYICNVNHKPSNTKVDKRV[not shown - human IgG1 Fc with S375C (EU numbers)] light: DIQMTQSPSSLSASVGDRVTITCRASQSISTWLAWYQQKPGKAPKLLIYKASNLHTGVPSRFSGSGSGTEFSLTISGLQPDDFATYYCQQYNVYSRTFGQGTKVEIKRTVAAPSVFIFPPSDEQLKSGTASVVCLLNNFYPREAKVQWKVDNALQSGNSQESVTEQDSKDSTYSLSSTLTLSKADYEKHKVYACEVTHQGLSSPVTKSFNRGEC	428000 M⁻¹ s⁻¹	0.105 s⁻¹	296000 M⁻¹ s⁻¹	0.0792 s⁻¹	178000 M⁻¹ s⁻¹	0.0508 s⁻¹	–	–	–
S93A (antibody) heavy: EVQLLESGGGLVQPGGSLRLSCAASGFTFSHYMMAWVRQAPGKGLEWVSRIGPSGGPTHYADSVKGRFTISRDNSKNTLYLQMNSLRAEDTAVYYCAGYDSGYDYVAVAGPAEYFQHWGQGTLVTVSSASTKGPSVFPLAPSSKSTSGGTAALGCLVKDYFPCPVTVSWNSGALTSGVHTFPAVLQSSGLYSLSSVVTVPSSSLGTQTYICNVNHKPSNTKVDKRV[not shown - human IgG1 Fc with S375C (EU numbers)] light: DIQMTQSPSSLSASVGDRVTITCRASQSISTWLAWYQQKPGKAPKLLIYKASNLHTGVPSRFSGSGSGTEFSLTISGLQPDDFATYYCQQYNAYSRTFGQGTKVEIKRTVAAPSVFIFPPSDEQLKSGTASVVCLLNNFYPREAKVQWKVDNALQSGNSQESVTEQDSKDSTYSLSSTLTLSKADYEKHKVYACEVTHQGLSSPVTKSFNRGEC	697000 M⁻¹ s⁻¹	0.181 s⁻¹	493000 M⁻¹ s⁻¹	0.131 s⁻¹	182000 M⁻¹ s⁻¹	0.0625 s⁻¹	–	–	–
S72T (antibody) heavy: EVQLLESGGGLVQPGGSLRLSCAASGFTFSHYMMAWVRQAPGKGLEWVSRIGPSGGPTHYADSVKGRFTISRDNSKNTLYLQMNSLRAEDTAVYYCAGYDSGYDYVAVAGPAEYFQHWGQGTLVTVSSASTKGPSVFPLAPSSKSTSGGTAALGCLVKDYFPCPVTVSWNSGALTSGVHTFPAVLQSSGLYSLSSVVTVPSSSLGTQTYICNVNHKPSNTKVDKRV[not shown - human IgG1 Fc with S375C (EU numbers)] light: DIQMTQSPSSLSASVGDRVTITCRASQSISTWLAWYQQKPGKAPKLLIYKASNLHTGVPSRFSGSGSGTEFTLTISGLQPDDFATYYCQQYNSYSRTFGQGTKVEIKRTVAAPSVFIFPPSDEQLKSGTASVVCLLNNFYPREAKVQWKVDNALQSGNSQESVTEQDSKDSTYSLSSTLTLSKADYEKHKVYACEVTHQGLSSPVTKSFNRGEC	737000 M⁻¹ s⁻¹	0.17 s⁻¹	240000 M⁻¹ s⁻¹	0.0518 s⁻¹	136000 M⁻¹ s⁻¹	0.0512 s⁻¹	–	–	–
N92Q (antibody) heavy: EVQLLESGGGLVQPGGSLRLSCAASGFTFSHYMMAWVRQAPGKGLEWVSRIGPSGGPTHYADSVKGRFTISRDNSKNTLYLQMNSLRAEDTAVYYCAGYDSGYDYVAVAGPAEYFQHWGQGTLVTVSSASTKGPSVFPLAPSSKSTSGGTAALGCLVKDYFPCPVTVSWNSGALTSGVHTFPAVLQSSGLYSLSSVVTVPSSSLGTQTYICNVNHKPSNTKVDKRV[not shown - human IgG1 Fc with S375C (EU numbers)] light: DIQMTQSPSSLSASVGDRVTITCRASQSISTWLAWYQQKPGKAPKLLIYKASNLHTGVPSRFSGSGSGTEFSLTISGLQPDDFATYYCQQYQSYSRTFGQGTKVEIKRTVAAPSVFIFPPSDEQLKSGTASVVCLLNNFYPREAKVQWKVDNALQSGNSQESVTEQDSKDSTYSLSSTLTLSKADYEKHKVYACEVTHQGLSSPVTKSFNRGEC	313000 M⁻¹ s⁻¹	0.0719 s⁻¹	271000 M⁻¹ s⁻¹	0.0531 s⁻¹	172000 M⁻¹ s⁻¹	0.0661 s⁻¹	–	–	–
